In all, about 150,000 compounds went through this assay and about 540 (0.36%) showed an effect of 50% or more. This is one part of the list.
system: Plasmodium falciparum; experiment: Primary screen in NF54 nanoGlo assay, in single point, at 2uM, 72h; a lower Z score goes with more inhibition; assay type: functional, Erythrocyte; settings: timepoint 72 hour

Structure (SMILES)	% Inhibition	Z score
Cc1nc([C@H](C)NC(=O)c2cc(C(C)C)nc(N)n2)cs1	-9%	1.11
Cc1ccc2cc3c(nc2c1)N(S(=O)(=O)c1ccccc1)CC3	-1%	0.08
COc1cc(Cl)c(C)cc1NC(=O)CN(C)[C@@H](C)c1ccccn1	-1%	0.12
CC1(C)CC(=O)N(c2nc3ccccc3s2)C(=O)C1	-8%	0.99
CN(CC1(O)CCCC1)C(=O)NC1CC(c2ccc(F)c(Cl)c2)C1 (stereo not drawn)	-10%	1.55
COc1cccc(CNC(=O)CN2C=NS(=O)(=O)c3ccccc32)c1	9%	-1.06
CO[C@@H](CNS(=O)(=O)c1cccnc1)c1ccccc1C	18%	-2.33
Clc1cc(CN2CCOCC3(CCC3)C2)cc2c1OCCO2	-8%	1
CCN(CC)S(=O)(=O)c1ccc2[nH]c3nc(N)nnc3c2c1	4%	-0.55
O=C(C[C@H]1CCCOC1)NCc1noc(-c2ccccc2)n1	-3%	0.5
Cc1cc(Cl)ccc1CNc1nncn1C	12%	-1.41
CC(C)(CNC(=O)c1cc[nH]c1C1CCC1)C1(O)CCOCC1	18%	-3.42
CCC(CC)C(=O)Nc1ccc(C)cc1C	3%	-0.46
CCCc1noc(CN(C)Cc2[nH]cc(C)c(=O)c2C)n1	-12%	1.65
CCOC(=O)C1CCN(C2CCN(Cc3nc(-c4ccccc4)no3)CC2)CC1	-7%	1.06
C[C@H](NC(=O)c1ccc(OC2CCOCC2)nc1)C(N)=O	-5%	0.89
CCn1cc(S(=O)(=O)NC(c2ccc3c(c2)CCO3)[C@H]2C[C@@H](O)C2)cn1 (stereo partly drawn)	0%	-0.08
Cc1cc(NC(=O)C2CCCC2)n(-c2nc3c(cnn3-c3ccc(Cl)cc3)c(=O)[nH]2)n1	-3%	0.5
CN(C)CCN(C1CCCCC1)S(=O)(=O)c1c[nH]c(C(=O)N2CCCC2)c1	-9%	1.06
Cc1nc(CN2CCCN(c3nc4ccc(F)cc4o3)CC2)oc1C	-10%	1.22
COCCN(CC1(C)CCOCC1)C(=O)NCC(C)C	-1%	0.28
O=C(NCc1ccc2c(c1)OCO2)N1CCCC[C@H]1c1nc2ccccc2[nH]1	-8%	1.41
CN(Cc1ccnn1C)c1ncc(F)cn1	-9%	1.15
CCS(=O)(=O)c1ccccc1NC1CC=CC1	0%	-0.03
C[C@@H](Cn1cncn1)NC(=O)Nc1cccc(C(=O)N2CCN(C)CC2)c1	-6%	1.1
CC(C)CC(=O)Nc1ccc(S(=O)(=O)N(C(=O)CC(C)C)c2ncccn2)cc1	0%	0.02
CCCc1nc(C)cc(N2CCn3nc([C@@H](O)c4ccnn4C)cc3C2)n1	-22%	2.76

Structure (SMILES)	% Inhibition	Z score
CCCC(=O)N1CC(N2CCc3ccccc3C2)C1	2%	-0.34
O=C(Nc1cc2cc[nH]c2cn1)[C@H]1CC[C@@H](C(=O)N2CCOCC2)O1	-20%	2.16
CN(C)C(=O)c1cc2c(s1)CC[C@H](C(=O)NCCN1CCOCC1)C2	36%	-0.76
O=C(CCc1ccsc1)N1CCC[C@H]1c1ncc[nH]1	-1%	0.15
O=C(Nc1nc2ccccc2s1)c1ccc(OCc2nc(C3CC3)cs2)cc1	-11%	2.11
CCOc1ccc(Cl)cc1CCNC(=O)[C@H](C)c1cccnc1	4%	-0.59
Cc1cccc2nnc(N3CCC(C(=O)NCc4ccc(C(F)(F)F)cc4)CC3)n12	-4%	0.87
CCn1nc(CC(C)C)cc1C(=O)NCCc1nc(C)c2c(n1)CCC2	-1%	0.16
Cc1noc(C)c1S(=O)(=O)N(C)CC=Cc1ccccc1	-8%	1.07
Cc1cccc([C@@H](NC(=O)N(C)CCO)C(F)(F)F)c1	-3%	0.26
CC(C)c1nc(C2CCN(C(=O)[C@H]3CCNC(=O)C3)CC2)no1	3%	-0.47
C=CCN1C(=O)C2(CCCCC2)N[C@]12C(=O)Nc1cc(O)ccc12	-9%	1.74
Cc1nc(C)c(-c2ccc(C(=O)NCc3ccc(C(=O)N(C)C)o3)cc2)[nH]1	-4%	0.75
COc1ccccc1C1(CNc2nccn3c(C)nnc23)CC1	-14%	1.28
O=C(NCc1cccc2c1OCO2)c1scnc1C1CCCC1	-10%	1.41
Cc1cc(C)c2c(NC(=O)C3CCCCC3)nn(C)c2n1	8%	-1.29
CC(C)(C)OC(=O)N[C@@H](Cn1ccnn1)c1ccccc1	-8%	0.88
COc1ccccc1C(=O)NCc1ccc2c(c1)CCN2C(=O)c1ccccc1	-12%	2.24
O=C(N/C(=N/c1ccc(F)cc1)NCc1cccnc1)c1ccccc1	-23%	2.08
CC(C)Oc1ccc(C2(c3nc([C@H]4CCOC4)no3)CCCC2)cc1	12%	-1.5
Cc1cc(CN2CCN(C(=O)c3ccccc3S(C)(=O)=O)CC2)on1	-6%	0.96
CC(C)NC[C@H](O)COc1ccc(CCOCC2CC2)cc1 [LEVOBETAXOLOL]	-16%	2.01
Cc1cc(C#N)nc(NC2CC(C)N(C3CC3)C2)n1 (stereo not drawn)	-19%	1.75
C[C@@]1(C(=O)NC2CCCCCCC2)Cn2c(ccc2-c2ccco2)C(=O)N1CCN1CCCCCC1	-13%	1.28
c1ccc(-c2nc(-c3cccc4ncccc34)n[nH]2)cc1	-4%	0.86
CCNC(=O)[C@@H]1C[C@@H](n2cc(CN(C)C(=O)c3cccc(C)c3C)nn2)CN1	2%	-0.34
Cc1cc(F)ccc1C(=O)N[C@H]1COCC[C@@H]1O	-6%	0.93
